Reference: PubChem BioAssay AID1259400 (National Center for Advancing Translational Sciences (NCATS), 2018)
In all, about 350,000 compounds went through this assay and about 2,100 (0.6%) were called active. This list was built around the results that the source calls inconclusive (neither active nor inactive); the mix of calls is not that of the screen.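 How the source made its calls: active means activity change of -60% or lower, but not beyond a set lower limit; inconclusive means change between -60% and -40%, or beyond the set limit; inactive means change above -40%.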

What follows are compounds tested against Relaxin receptor 1 (Homo sapiens) (UniProt Q9HBX9) (assay: qHTS Assay for Antagonists of the Relaxin Receptor RXFP1). Conditions: HEK293-RXFP1, relaxin-stimulated cAMP HTRF, 30 min; at 57.5 µM; stronger effect = lower value.
On the % scale 0 is the no-effect control and ±100 the full control effect.

Chain of UniProt Q9HBX9 (Q9HBX9 whole entry, looked up): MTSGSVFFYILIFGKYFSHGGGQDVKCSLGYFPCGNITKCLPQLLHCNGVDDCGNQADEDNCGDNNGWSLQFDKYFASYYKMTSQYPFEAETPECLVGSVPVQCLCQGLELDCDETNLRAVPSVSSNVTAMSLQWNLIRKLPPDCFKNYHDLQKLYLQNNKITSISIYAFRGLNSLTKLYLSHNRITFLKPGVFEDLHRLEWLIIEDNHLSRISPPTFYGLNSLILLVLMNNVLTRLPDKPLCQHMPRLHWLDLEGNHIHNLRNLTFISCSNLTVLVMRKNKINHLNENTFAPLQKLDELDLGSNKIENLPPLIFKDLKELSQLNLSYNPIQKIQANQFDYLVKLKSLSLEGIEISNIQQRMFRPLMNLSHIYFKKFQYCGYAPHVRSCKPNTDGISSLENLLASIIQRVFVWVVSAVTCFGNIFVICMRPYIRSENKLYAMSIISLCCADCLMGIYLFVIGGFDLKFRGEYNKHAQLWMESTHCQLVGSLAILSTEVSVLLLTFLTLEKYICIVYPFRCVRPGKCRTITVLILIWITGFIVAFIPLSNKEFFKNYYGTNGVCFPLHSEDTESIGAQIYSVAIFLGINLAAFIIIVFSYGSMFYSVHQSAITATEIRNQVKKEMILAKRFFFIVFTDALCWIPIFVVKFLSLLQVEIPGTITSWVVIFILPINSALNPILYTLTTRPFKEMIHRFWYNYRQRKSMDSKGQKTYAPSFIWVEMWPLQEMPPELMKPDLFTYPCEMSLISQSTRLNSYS

Row | Structure (SMILES) | activity change, negative = inhibition
1 | O=C(CSc1nc2ccsc2c(=O)n1CC1CCC(C(=O)O)CC1)c1ccc(F)cc1 (centres undefined) | inactive: -7.58%
2 | Cc1ccc2c(c1)N(C(=O)N1CCC(C(=O)NC3CCCCCC3)CC1)CC(C)O2 (centres undefined) | inactive: -7.07%
3 | Cc1ccc(C)c(CN2CCC(CNC(=O)c3cc4ccc5cccnc5c4[nH]3)CC2)c1 | inconclusive: -52.5%
4 | Cc1ccc(-c2nnc(N3CCC(C)CC3)c3ccccc23)cc1C | inconclusive: -48.1%
5 | CCN(CC)CCN(C(=O)c1ccc2c(c1)OCCO2)c1nc2cc(C)cc(C)c2s1 | inconclusive: -48.2%
6 | COc1ccccc1CNC(=O)c1ccc(N2Cc3cccc(OC)c3Oc3ncccc32)s1 | inactive: -2.19%
7 | c1ccc(-c2ccccc2OCCCCN2CCCCCC2)cc1 | inconclusive: -41.8%
8 | Cc1ccc2nc(Cl)c3cc(C(=O)N(CCN(C)C)Cc4ccco4)sc3c2c1 | inconclusive: -40.8%
9 | NC(=O)c1ccccc1NC(=O)Nc1ccccc1Cl | inconclusive: -56.5%
10 | N#CCCCn1c(=O)oc2ccccc21 | inconclusive: -50.2%
11 | O=C(Nc1nc(-c2ccccn2)cs1)c1cc(Cl)ccc1[N+](=O)[O-] | inconclusive: -40.4%
12 | CCn1c(SCc2ccccc2F)nc(=O)c2c(C(=O)OC)cc(C3CC3)nc21 | active: -102%
13 | Cc1noc(C)c1C(=O)NNc1cc(Cl)ccc1Cl | inconclusive: -56.5%
14 | Cc1ccc(NC(=O)c2cc(N3C(=O)CCC3=O)ccc2N2CCOCC2)cc1 | inactive: 2.41%
15 | Cc1ccc(CCNC(=O)c2ccc(CSCc3ccccc3C)o2)cc1 | inconclusive: -53.7%
16 | O=[N+]([O-])c1ccc(/C=N/N=C/c2ccc([N+](=O)[O-])o2)o1 | inactive: -11.1%
17 | O=C(Nc1ccc(Cl)c(Cl)c1)Nc1ccccc1C(=O)O | inactive: -6.57%
18 | Cc1nc2c(C(=O)NC(C)c3ccccc3)cnn2c(C)c1Cc1ccccc1 (centres undefined) | active: -85.4%
19 | COc1ccccc1C1CCN(Cc2c(C)[nH]c3ccccc23)CC1 | inconclusive: -41.4%
20 | O=C(NCCc1csc(-c2ccc(F)cc2)n1)c1ccc(Br)o1 | inconclusive: -47.5%
21 | Cc1cccc(C)c1NC(=O)CN(C)C(=O)C1CCN(c2ncnc3sc(C)c(C)c23)CC1 | inactive: -16%
22 | Cc1cccc(-n2nnnc2S(C)(=O)=O)c1 | active: -83.9%
23 | Cc1cc(O)c(C(C)C)cc1NC(=O)Nc1ccc([N+](=O)[O-])cc1 | inconclusive: -42.1%
24 | O=C(Nc1ccccc1N1CCCC1)C1CCN(C(=O)c2ccc(Cl)cc2)CC1 | inconclusive: -50.6%
